{"source": "patent US9714221B1", "about": "(priority 2016, dated 2017)", "test_system": "MCF7 cells (breast tumor cells) WT", "experiment": "cells", "conditions": "Homo sapiens, read-out: proliferation MCF7 (WT) IC50 (nM)", "note": "Structures can show the parent of a compound that is named as a salt.", "data": [{"smiles": "Oc1ccc2c(c1F)CCCC(c1ccc(OC(F)F)cc1)=C2c1ccc(O[C@H]2CCN(CCCF)C2)cc1", "note": "[Example 143, 6-[4-(difluoromethoxy)phenyl]-1-fluoro-5-[4-[(3S)-1-(3-fluoropropyl)pyrrolidin-3-yl]oxyphenyl]-8,9-dihydro-7H-benzo[7]annulen-2-ol]", "values": [{"measurement": "IC50", "result": 0.7, "unit": "nM"}]}, {"smiles": "Cc1cc(OC(F)F)ccc1C1=C(c2ccc(O[C@H]3CCN(CCCF)C3)cc2)c2ccc(O)cc2CCC1", "note": "[Example 145, 6-[4-(difluoromethoxy)-2-methyl-phenyl]-5-[4-[(3S)-1-(3-fluoropropyl)pyrrolidin-3-yl]oxyphenyl]-8,9-dihydro-7H-benzo[7]annulen-2-ol]", "values": [{"measurement": "IC50", "result": 0.3, "unit": "nM"}]}, {"smiles": "Cc1cc(OC(F)(F)F)ccc1C1=C(c2ccc(O[C@H]3CCN(CCCF)C3)cc2)c2ccc(O)cc2CCC1", "note": "[Example 146, 5-[4-[(3S)-1-(3-fluoropropyl)pyrrolidin-3-yl]oxyphenyl]-6-[2-methyl-4-(trifluoromethoxy)phenyl]-8,9-dihydro-7H-benzo[7]annulen-2-ol]", "values": [{"measurement": "IC50", "result": 0.4, "unit": "nM"}]}, {"smiles": "Oc1ccc2c(c1)CCCC(c1cccc3ncccc13)=C2c1ccc(O[C@H]2CCN(CCCF)C2)cc1", "note": "[Example 152, 5-[4-[(3S)-1-(3-fluoropropyl)pyrrolidin-3-yl]oxyphenyl]-6-(5-quinolyl)-8,9-dihydro-7H-benzo[7]annulen-2-ol]", "values": [{"measurement": "IC50", "result": 0.4, "unit": "nM"}]}, {"smiles": "Oc1ccc2c(c1)CCCC(c1cccnc1)=C2c1ccc(O[C@H]2CCN(CCCF)C2)cc1", "note": "[Example 154, 5-[4-[(3S)-1-(3-fluoropropyl)pyrrolidin-3-yl]oxyphenyl]-6-(3-pyridyl)-8,9-dihydro-7H-benzo[7]annulen-2-ol]", "values": [{"measurement": "IC50", "result": 0.4, "unit": "nM"}]}, {"smiles": "Oc1ccc2c(c1)CCCC(c1ccc(C(F)(F)F)nc1Cl)=C2c1ccc(O[C@H]2CCN(CCCF)C2)cc1", "note": "[Example 155, 6-[2-chloro-6-(trifluoromethyl)-3-pyridyl]-5-[4-[(3S)-1-(3-fluoropropyl)pyrrolidin-3-yl]oxyphenyl]-8,9-dihydro-7H-benzo[7]annulen-2-ol]", "values": [{"measurement": "IC50", "result": 0.1, "unit": "nM"}]}, {"smiles": "CC(C)(C)OC(=O)N1CCOc2ccc(C3=C(c4ccc(O[C@H]5CCN(CCCF)C5)cc4)c4ccc(O)cc4CCC3)cc21", "note": "[Example 156, tert-butyl 6-[5-[4-[(3S)-1-(3-fluoropropyl)pyrrolidin-3-yl]oxyphenyl]-2-hydroxy-8,9-dihydro-7H-benzo[7]annulen-6-yl]-2,3-dihydro-1,4-benzoxazine-4-carboxylate]", "values": [{"measurement": "IC50", "result": 2, "unit": "nM"}]}, {"smiles": "Oc1ccc2c(c1)CCCC(c1ccc(SC(F)F)cc1)=C2c1ccc(O[C@H]2CCN(CCCF)C2)cc1", "note": "[Example 157, 6-[4-(difluoromethylsulfanyl)phenyl]-5-[4-[(3S)-1-(3-fluoropropyl)pyrrolidin-3-yl]oxyphenyl]-8,9-dihydro-7H-benzo[7]annulen-2-ol]", "values": [{"measurement": "IC50", "result": 0.6, "unit": "nM"}]}, {"smiles": "Oc1ccc2c(c1)CCCC(c1ccc3c(c1)NCCC3)=C2c1ccc(O[C@H]2CCN(CCCF)C2)cc1", "note": "[Example 158, 5-[4-[(3S)-1-(3-fluoropropyl)pyrrolidin-3-yl]oxyphenyl]-6-(1,2,3,4-tetrahydroquinolin-7-yl)-8,9-dihydro-7H-benzo[7]annulen-2-ol]", "values": [{"measurement": "IC50", "result": 0.5, "unit": "nM"}]}, {"smiles": "O=C(O)c1ccc2c(c1)CCCC(c1ccc(OC(F)(F)F)cc1)=C2c1ccc(O[C@H]2CCN(CCCF)C2)cc1", "note": "[Example 159, 5-[4-[(3S)-1-(3-fluoropropyl)pyrrolidin-3-yl]oxyphenyl]-6-[4-(trifluoromethoxy)phenyl]-8,9-dihydro-7H-benzo[7]annulen-2-carboxylic acid]", "values": [{"measurement": "IC50", "result": 8, "unit": "nM"}]}, {"smiles": "Oc1ccc2c(c1F)CCCC(c1ccc(OC(F)(F)F)cc1F)=C2c1ccc(O[C@H]2CCN(CCCF)C2)cc1", "note": "[Example 160, 1-fluoro-5-[4-[(3S)-1-(3-fluoropropyl)pyrrolidin-3-yl]oxyphenyl]-6-[2-fluoro-4-(trifluoromethoxy)phenyl]-8,9-dihydro-7H-benzo[7]annulen-2-ol]", "values": [{"measurement": "IC50", "result": 0.7, "unit": "nM"}]}, {"smiles": "Oc1ccc2c(c1)CCCC(c1cc(F)c(Cl)cc1Cl)=C2c1ccc(O[C@H]2CCN(CCCF)C2)cc1", "note": "[Example 162, 6-(2,4-dichloro-5-fluoro-phenyl)-5-[4-[(3S)-1-(3-fluoropropyl)pyrrolidin-3-yl]oxyphenyl]-8,9-dihydro-7H-benzo[7]annulen-2-ol]", "values": [{"measurement": "IC50", "result": 0.6, "unit": "nM"}]}, {"smiles": "O=S(=O)(c1ccc(C2=C(c3ccc(O[C@H]4CCN(CCCF)C4)cc3)c3ccc(O)cc3CCC2)cc1)C(F)(F)F", "note": "[Example 166, 5-[4-[(3S)-1-(3-fluoropropyl)pyrrolidin-3-yl]oxyphenyl]-6-[4-(trifluoromethylsulfonyl)phenyl]-8,9-dihydro-7H-benzo[7]annulen-2-ol]", "values": [{"measurement": "IC50", "result": 0.8, "unit": "nM"}]}, {"smiles": "O=C(O)c1ccc2c(c1)CCCC(c1ccc(OC(F)(F)F)cc1F)=C2c1ccc(O[C@H]2CCN(CCCF)C2)cc1", "note": "[Example 168, 5-[4-[(3S)-1-(3-fluoropropyl)pyrrolidin-3-yl]oxyphenyl]-6-[2-fluoro-4-(trifluoromethoxy)phenyl]-8,9-dihydro-7H-benzo[7]annulen-2-carboxylic acid]", "values": [{"measurement": "IC50", "result": 4, "unit": "nM"}]}, {"smiles": "Oc1ccc2c(c1)CCCC(c1cnoc1)=C2c1ccc(O[C@H]2CCN(CCCF)C2)cc1", "note": "[Example 169, 5-[4-[(3S)-1-(3-fluoropropyl)pyrrolidin-3-yl]oxyphenyl]-6-isoxazol-4-yl-8,9-dihydro-7H-benzo[7]annulen-2-ol]", "values": [{"measurement": "IC50", "result": 10, "unit": "nM"}]}, {"smiles": "CCOc1ncc(C2=C(c3ccc(O[C@H]4CCN(CCCF)C4)cc3)c3ccc(O)cc3CCC2)cc1F", "note": "[Example 170, 6-(6-ethoxy-5-fluoro-3-pyridyl)-5-[4-[(3S)-1-(3-fluoropropyl)pyrrolidin-3-yl]oxyphenyl]-8,9-dihydro-7H-benzo[7]annulen-2-ol]", "values": [{"measurement": "IC50", "result": 3, "unit": "nM"}]}, {"smiles": "Oc1ccc2c(c1)CCCC(c1ccc(O)nc1F)=C2c1ccc(O[C@H]2CCN(CCCF)C2)cc1", "note": "[Example 171, 6-fluoro-5-[5-[4-[(3S)-1-(3-fluoropropyl)pyrrolidin-3-yl]oxyphenyl]-2-hydroxy-8,9-dihydro-7H-benzo[7]annulen-6-yl]pyridin-2-ol]", "values": [{"measurement": "IC50", "result": 0.9, "unit": "nM"}]}, {"smiles": "CC(C)(C)c1cc(C2=C(c3ccc(O[C@H]4CCN(CCCF)C4)cc3)c3ccc(O)cc3CCC2)cc(F)n1", "note": "[Example 172, 6-(6-tert-butyl-2-fluoro-4-pyridyl)-5-[4-[(3S)-1-(3-fluoropropyl)pyrrolidin-3-yl]oxyphenyl]-8,9-dihydro-7H-benzo[7]annulen-2-ol]", "values": [{"measurement": "IC50", "result": 30, "unit": "nM"}]}, {"smiles": "C[Si](C)(C)c1ccc(C2=C(c3ccc(O[C@H]4CCN(CCCF)C4)cc3)c3ccc(O)cc3CCC2)cc1", "note": "[Example 173]", "values": [{"measurement": "IC50", "result": 5, "unit": "nM"}]}, {"smiles": "CC1(C)Cc2cc(C3=C(c4ccc(O[C@H]5CCN(CCCF)C5)cc4)c4ccc(C(=O)O)cc4CCC3)ccc2N1", "note": "[Example 174, 6-(2,2-dimethylindolin-5-yl)-5-[4-[(3S)-1-(3-fluoropropyl)pyrrolidin-3-yl]oxyphenyl]-8,9-dihydro-7H-benzo[7]annulene-2-carboxylic acid hydrochloride]", "values": [{"measurement": "IC50", "result": 1, "unit": "nM"}]}, {"smiles": "Cc1nc2cc(C3=C(c4ccc(O[C@H]5CCN(CCCF)C5)cc4)c4ccc(O)cc4CCC3)ccc2[nH]1", "note": "[Example 176, 5-[4-[(3S)-1-(3-fluoropropyl)pyrrolidin-3-yl]oxyphenyl]-6-(2-methyl-1H-benzimidazol-5-yl)-8,9-dihydro-7H-benzo[7]annulen-2-ol]", "values": [{"measurement": "IC50", "result": 5, "unit": "nM"}]}, {"smiles": "O=C(O)c1ccc2c(c1)CCCC(c1ccc(SC(F)(F)F)cc1)=C2c1ccc(O[C@H]2CCN(CCCF)C2)cc1", "note": "[Example 177, 5-[4-[(3S)-1-(3-fluoropropyl)pyrrolidin-3-yl]oxyphenyl]-6-[4-(trifluoromethylsulfanyl)phenyl]-8,9-dihydro-7H-benzo[7]annulene-2-carboxylic acid]", "values": [{"measurement": "IC50", "result": 11, "unit": "nM"}]}, {"smiles": "Oc1ccc2c(c1)CCCC(c1ccc3ncsc3c1)=C2c1ccc(O[C@H]2CCN(CCCF)C2)cc1", "note": "[Example 178, 6-(1,3-benzothiazol-6-yl)-5-[4-[(3S)-1-(3-fluoropropyl)pyrrolidin-3-yl]oxyphenyl]-8,9-dihydro-7H-benzo[7]annulen-2-ol]", "values": [{"measurement": "IC50", "result": 0.5, "unit": "nM"}]}, {"smiles": "Cn1nnc2ccc(C3=C(c4ccc(O[C@H]5CCN(CCCF)C5)cc4)c4ccc(O)cc4CCC3)cc21", "note": "[Example 179, 5-[4-[(3S)-1-(3-fluoropropyl)pyrrolidin-3-yl]oxyphenyl]-6-(3-methylbenzotriazol-5-yl)-8,9-dihydro-7H-benzo[7]annulen-2-ol]", "values": [{"measurement": "IC50", "result": 1, "unit": "nM"}]}, {"smiles": "Oc1ccc2c(c1F)CCCC(c1ccc(OC(F)(F)F)cc1Cl)=C2c1ccc(O[C@H]2CCN(CCCF)C2)cc1", "note": "[Example 180, 6-[2-chloro-4-(trifluoromethoxy)phenyl]-1-fluoro-5-[4-[(3S)-1-(3-fluoropropyl)pyrrolidin-3-yl]oxyphenyl]-8,9-dihydro-7H-benzo[7]annulen-2-ol]", "values": [{"measurement": "IC50", "result": 2, "unit": "nM"}]}, {"smiles": "Cc1cc(C(C)(C)C)ccc1C1=C(c2ccc(O[C@H]3CCN(CCCF)C3)cc2)c2ccc(O)cc2CCC1", "note": "[Example 181, 6-(4-tert-butyl-2-methyl-phenyl)-5-[4-[(3S)-1-(3-fluoropropyl)pyrrolidin-3-yl]oxyphenyl]-8,9-dihydro-7H-benzo[7]annulen-2-ol]", "values": [{"measurement": "IC50", "result": 2, "unit": "nM"}]}, {"smiles": "CS(=O)(=O)c1ccc(C2=C(c3ccc(O[C@H]4CCN(CCCF)C4)cc3)c3ccc(O)cc3CCC2)c(F)c1", "note": "[Example 182, 6-(2-fluoro-4-methylsulfonyl-phenyl)-5-[4-[(3S)-1-(3-fluoropropyl)pyrrolidin-3-yl]oxyphenyl]-8,9-dihydro-7H-benzo[7]annulen-2-ol]", "values": [{"measurement": "IC50", "result": 0.3, "unit": "nM"}]}, {"smiles": "Oc1ccc2c(c1)CCCC(c1ccc(S(F)(F)(F)(F)F)cc1)=C2c1ccc(O[C@H]2CCN(CCCF)C2)cc1", "note": "[Example 184, 5-[4-[(3S)-1-(3-fluoropropyl)pyrrolidin-3-yl]oxyphenyl]-6-[4-(pentafluorosulfanyl)phenyl]-8,9-dihydro-7H-benzo[7]annulen-2-ol]", "values": [{"measurement": "IC50", "result": 1, "unit": "nM"}]}, {"smiles": "Oc1ccc2c(c1)CCCC(c1ccc(N3CCOCC3)cc1)=C2c1ccc(O[C@H]2CCN(CCCF)C2)cc1", "note": "[Example 185, 5-[4-[(3S)-1-(3-fluoropropyl)pyrrolidin-3-yl]oxyphenyl]-6-(4-morpholinophenyl)-8,9-dihydro-7H-benzo[7]annulen-2-ol]", "values": [{"measurement": "IC50", "result": 41, "unit": "nM"}]}, {"smiles": "Cn1cnc2cc(C3=C(c4ccc(O[C@H]5CCN(CCCF)C5)cc4)c4ccc(O)cc4CCC3)ccc21", "note": "[Example 187, 5-[4-[(3S)-1-(3-fluoropropyl)pyrrolidin-3-yl]oxyphenyl]-6-(1-methylbenzimidazol-5-yl)-8,9-dihydro-7H-benzo[7]annulen-2-ol]", "values": [{"measurement": "IC50", "result": 19, "unit": "nM"}]}]}
